Measured values published in PubChem BioAssay AID1963576 (National Center for Advancing Translational Sciences (NCATS), 2024).
Hit rate of the full screen: of about 46,000 compounds, about 60 (0.1%) were called active. Another 3% or so got no clear call; they are omitted. Calls follow the shape of the dose curve; as a rule, active = well fitted inhibition curve with a large enough effect; inconclusive = small, poorly fitted or top-dose-only effect; inactive = no such curve, though single readings can be large or run the other way. The list shows a part of the results.

Assay: Primary qHTS assay for Inhibitors of ovarian cancer metastasis using an organotypic tumor microenvironment (TME) model. Also: nearly all actives have a fitted effect of over 65% in size.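 As to activity change, negative = inhibition: plate controls were DMSO wells for no effect and tomatine positive control wells for full effect.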
Conditions: SKOV3ip1-GFP adhesion/invasion on 3D omental model, fluorescence; series mostly up to 45.8 µM; activity change, negative = inhibition: at the top concentration
Procedure, shortened: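 A 3D layer of primary human omental fibroblasts, mesothelial cells, fibronectin and collagen I, grown 48 hr, received SKOV3ip1-GFP cells in serum-free medium plus compounds at 0.36-46 umol/L. After 2 hr RT and 16 hr 37 C, fixed adherent GFP cells were counted; normalized to DMSO and tomatine.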

outcome, inactive:
Cc1ccc(CCNC(=O)CCS(=O)(=O)c2cc3c(cc2C)NC(=O)CO3)cc1, COc1ccc(Cl)cc1NC(=O)CCCN1C(=O)C(c2ccccc2)Oc2cccnc21 (configuration not stated), COc1ccc(N2Cc3cccc(C(=O)Nc4ccc(F)cc4)c3C2=O)cc1, CCOCCCN(Cc1ccco1)S(=O)(=O)c1cc2c(cc1C)NC(=O)CO2, COc1ccc(CCNC(=O)C(=O)NCC(c2ccc3c(c2)OCO3)N2CCOCC2)cc1OC (configuration not stated), CCOc1ccc(NC(=O)c2oc3ccccc3c2NC(=O)c2c(F)cccc2F)cc1, COc1ccccc1N1CCN(C(=O)CSc2nc3ccccc3nc2Cc2ccccc2)CC1, COc1ccccc1N1CCN(C(=O)c2cc(-c3ccc(F)cc3)on2)CC1, CCN(c1cccc(C)c1)S(=O)(=O)c1nnc(NC(=O)c2ccccc2Cl)s1, CCN(C(=O)Cn1nnc2sc(-c3ccccc3)cc2c1=O)c1cccc(C)c1, CCC1CN(C(=O)Nc2cccc3c2CCCC3)c2ccccc2O1 (configuration not stated), CCOC(=O)C1CCCN(CCC(=O)Nc2cccc(C)c2)C1 (configuration not stated), CCCCn1c(C(C)NC(=O)c2ccccc2)nc2ccccc21 (configuration not stated), COc1ccccc1-c1cc2nc(C)c(CCC(=O)NCc3cccc(Cl)c3)c(C)n2n1, O=C(Cn1c(=O)c2cccn2c2ccc(F)cc21)N1CCN(c2ccc(F)cc2)CC1, COc1ccc(C2=C(Nc3ccc(C)c(C)c3)c3ccccc3C2=O)cc1, N#Cc1cccc(NC(=O)c2cc3c(s2)-c2ccc(Cl)cc2SC3)c1, CCOc1ccccc1CNC(=O)c1cccn1-c1nnc(N2CCCCC2)s1, Cc1ccn2c(=O)c(C(=O)NC(C)c3ccccc3)c(O)nc2c1 (configuration not stated), COc1ccc(NC(=O)c2cnc[nH]2)cc1, COc1ccc(S(=O)(=O)c2cc(NS(=O)(=O)c3ccc(Cl)cc3)c(C)c(C)c2O)cc1, O=C(CSc1nc2c([nH]c3ccccc32)c(=O)n1-c1ccc(Cl)cc1)N1CCCC1, Cc1cc(C)c(NC(=O)COc2ccc3c(C)cc(=O)oc3c2)c(C)c1, COc1ccc(-c2noc(C3CC(=O)N(c4ccccc4)C3)n2)c(OC)c1 (configuration not stated), CCN(CCCNC(=O)c1cc(Nc2ccccc2OC)nc2ccccc12)c1cccc(C)c1, COc1ccc(NC(=O)Cn2nc(C)c3nn(-c4ccc(Cl)cc4)c(C)c3c2=O)cc1

Activity change, negative = inhibition, inactive:
CN(C(=O)CCS(=O)(=O)c1cc2c(cc1Cl)NC(=O)CO2)C1CCCCC1 22.6%, O=C(Nc1ccc2nc(SCC(=O)N3CCc4ccccc43)sc2c1)c1cccc(Cl)c1 7.32%, COc1cc(OC)c(OC)cc1CNc1sc2c(c1C(=O)Nc1ccccc1OC)CCC2 -16.6%, CCn1c(C(=O)N2CCCC(C(=O)N3CCN(c4cc(C)ccc4C)CC3)C2)cc2sccc21 (configuration not stated) -3%, CCN(CC)c1ccc(NC(=O)c2sc3nc4c(cc3c2N)CN(C)CC4)cc1 -2.64%, COc1ccc(NC(=O)c2cc3c(=O)n(Cc4cccnc4)ccc3nc2C)cc1OC -12.7%, COc1cc2c(cc1OC)C(COc1cc(C)cc(C)c1)N(C(=O)COc1ccccc1)CC2 (configuration not stated) 20.2%, COc1ccc(-n2c(=O)c3ccccc3n(CC(=O)NCCc3ccc(OC)c(OC)c3)c2=O)cc1 14.8%, Cc1ccccc1CCNC(=O)c1cc2cc(S(=O)(=O)N3CCCCC3)ccc2n1C 3.94%, CCn1c(=N)c(C(=O)NC2CCCCC2)cc2c(=O)n3cc(C)ccc3nc21 23.7%, COc1ccc(C)cc1NS(=O)(=O)c1cc2c3c(c1)CC(=O)N3CCC2 -6.86%, COc1ccc(NC(=O)CSc2nc3nc(C)c(Cc4ccccc4Cl)c(C)n3n2)cc1OC 0.317%, Cc1ccc(C2=Nc3ccccc3N(CC(=O)NCc3ccccc3Cl)C(=O)C2)cc1C 5.76%, COc1ccc(-n2ncc(C(=O)Nc3cccc(C(F)(F)F)c3)c2C2CCN(C(=O)OC(C)(C)C)CC2)cc1 -28.6%, Cc1ccccc1CN1c2ccccc2-c2nc(SCC(=O)NCc3ccccc3)ncc2S1(=O)=O -1.97%, CC(C)C(=O)NCC(c1ccc2c(c1)OCO2)N1CCN(c2ccccc2)CC1 (configuration not stated) 3.03%, Cc1c(C(=O)NCCc2ccc(Cl)cc2)sc2nc3n(c(=O)c12)CCCC3 -6.59%, O=C(C=CC=Cc1ccc2c(c1)OCO2)N1CCCCC1 -25.2%, O=C(Nc1c(C(=O)N2CCN(c3ccccc3)CC2)oc2ccccc12)c1ccco1 -28.4%, Cc1cccn2c(=O)c(C(=O)NCCc3ccccc3)c(O)nc12 -4.55%, Cc1cccc(-c2noc(CSc3nc(-c4ccc(F)cc4)cc(=O)[nH]3)n2)c1 7.06%, Cc1ccc2nc(CNC(=O)c3ccccc3)[nH]c2c1 2.58%, N#Cc1cc(NC(=O)Nc2nnc(-c3ccncc3)s2)ccc1-c1cn[nH]c1 -5.02%, COc1ccc(CNC(=O)c2cc(Nc3ccc(C)cc3C)nc3ccccc23)cc1 17.4%, CCCN(CCC)S(=O)(=O)c1ccc2c(c1)N(CC(=O)NC(C)c1ccccc1)C(=O)CS2 (configuration not stated) -20.9%, Cc1ccc(CSC2=Nc3ccccc3C3=NC(CC(=O)NC4CCCCC4)C(=O)N23)cc1 (configuration not stated) 23%, O=C(O)C=Cc1ccc(Cn2ccnc2)cc1 -9.18%, COc1cccc(-n2ccn(CC(=O)c3ccc(F)cc3)c(=O)c2=O)c1 -4.63%, Cc1ccc(NC(=O)C(=O)c2cc(C)n(-c3ccc(F)cc3)c2C)cc1C 0.184%, CCOc1ccc(NC(=O)C2CCCN(S(=O)(=O)c3ccc4[nH]c(=O)ccc4c3)C2)cc1 (configuration not stated) 3.31%, CC(=O)c1ccc(N2C(=O)N(CC(=O)c3ccc(C)cc3)c3ccccc3S2(=O)=O)cc1 11%, Cc1ccc2nc(-c3ccc(NC(=O)COc4ccccc4)cc3)sc2c1 -6.25%, Cc1c(Cl)cccc1NC(=O)CCN1C(=O)c2ccccc2Sc2ncccc21 2.72%, COC(=O)c1c(NC(=O)CS(=O)(=O)c2ccc(C)cc2)sc2c1CCCC2 -15.6%, Cc1ccc2oc(=O)c3cnn(CC(=O)N4CCN(c5ccccc5)CC4)c3c2c1 0.827%, CCC(Sc1nc2ccccc2c2nc(-c3ccccc3)nn12)C(=O)Nc1cccc(OC)c1 (configuration not stated) -0.987%, O=C(Nc1ccc(F)cc1F)c1cc2nc(-c3ccco3)cc(C(F)(F)Cl)n2n1 -1.23%, CCC(C)NC(=O)CSc1nc2n[nH]c(C)c2c(=N)n1-c1ccc(C)c(Cl)c1 (configuration not stated) -0.588%, O=C(Nc1cccc(Cl)c1)c1ccc(F)c(S(=O)(=O)N2CCC3(CC2)OCCO3)c1 -10.5%, Cc1cc(NC(=O)CCNS(=O)(=O)c2ccc3c(c2)oc(=O)n3C)ccc1Br 10.6%, CCN(CC)C(=O)c1cc(-c2ccc(Cl)cc2)on1 -14.5%, CCN(CC)S(=O)(=O)c1ccc2c(c1)c(=O)c(C(=O)N1CCN(c3cccc(C)c3)C(C)C1)cn2C (configuration not stated) 7.64%, Cc1ccc(CNC(=O)CN(c2ccc(C)cc2)S(=O)(=O)c2c(C)nn(C)c2C)cc1 -7.77%, Cc1ccc2c(=O)cc(C(=O)Nc3ccc(S(=O)(=O)N(C)Cc4ccccc4)cc3)oc2c1 -15.6%, COc1ccc(NC(=O)CCn2c(=O)c3cccn3c3ccccc32)c(OC)c1 1.49%, COC(=O)c1cnn2c(C)c(Cc3c(C)cc(C)cc3C)c(C)nc12 1.1%, O=C(Nc1nnc(S(=O)(=O)N2CCCc3ccccc32)s1)c1ccccc1 3.98%, COc1ccc(N2CC(NC(=O)C3CC3)CC2=O)cc1OC (configuration not stated) 6.36%, CC(=O)c1ccc(NC(=O)CN(C)S(=O)(=O)c2cccc3nsnc23)cc1 -4.08%, Cc1cccc(N2CCN(C(=O)CCn3c(=O)c4cccn4c4cccnc43)CC2)c1C -1.86%, O=C(COc1ccccc1)Nc1cccc(-c2cn3cccnc3n2)c1 0.913%, CCOc1ccc(N(C)C(CNS(=O)(=O)c2ccccc2)c2ccccc2)cc1 (configuration not stated) -8.6%, Fc1cccc(-n2ncc3c2ncn2nc(-c4ccccc4Cl)nc32)c1 12.2%, CC(C)CCn1c(=O)c2sccc2n2c(CCCC(=O)NCc3ccc(F)cc3)nnc12 -4.59%, CCc1ccccc1NC(=O)c1cc(S(=O)(=O)N2CCCc3ccccc32)ccc1F 2.81%, Cc1c(C(=O)Nc2ccc(F)cc2)sc2nc[nH]c(=O)c12 23.9%, CCOc1ccc(C(=O)Nc2cc(-c3nc4ccccc4s3)ccc2OC)cc1 4.22%, COc1ccccc1N1CCN(C(=O)c2cc(-c3ccccc3O)on2)CC1 3.99%, O=C(COc1ccccc1[N+](=O)[O-])Nc1ccc(-c2nc3ccccc3s2)cc1 -11.3%, COc1ccc(CCNC(=O)c2ccc3c(c2)N(Cc2ccc(F)cc2)CCS3)cc1OC -0.239%, CCc1nn(CC(=O)NCc2ccccc2Cl)c(=O)c2cccn12 2.11%, COc1ccccc1-n1c(-c2ccc(C)cc2)cn2c3c(=O)n(C)c(=O)n(C)c3nc12 3.36%, O=S(=O)(c1ccccc1)c1nc(-c2cccs2)oc1SCc1ccc(F)cc1 13.2%, Cc1nc(SCC(=O)Nc2ccccc2F)[nH]c(=O)c1Cc1ccccc1 -17.1%, COC(=O)CCNC(=O)N1CCN(c2nnc(C)c3c(C)n(-c4ccc(Cl)cc4)nc23)CC1 -4.24%, Cc1ccc(NC(c2ccc(Cl)cc2)c2nnc(-c3cccc(F)c3)o2)cc1C (configuration not stated) 0.692%, COC(=O)c1ccc(NC(=O)CN2C(=O)c3cccc4cccc2c34)cc1 11.9%, COc1ccc(-c2cn3nc(SCC(=O)Nc4ccc(C)c(Cl)c4)ccc3n2)cc1 -8.11%, O=S(=O)(NCC(Nc1ccc(Cl)cc1)c1ccccc1)c1ccccc1 (configuration not stated) 1.87%, COc1ccc(OC)c(CCNC(=O)c2c3c(nc4ccccc24)C(=O)N(C2CCCCC2)C3)c1 -13.4%, COc1cccc(Nc2nc3cc(Cl)c(Cl)cc3nc2-n2nc(C)cc2C)c1 -7.83%
